Data from a collection of fitness landscapes (doi:10.1126/science.1257360).
This is one part of the list.

B1: PhoQ; a variant is named by its letters at X, in order, P23837 (parent)
chain: MKKLLRLFFPLSLRVRFLLATAAVVLVLSLAYGMVALIGYSVSFDKTTFRLLRGESNLFYTLAKWENNKLHVELPENIDKQSPTMTLIYDENGQLLWAQRDVPWLMKMIQPDWLKSNGFHEIEADVNDTSLLLSGDHSIQQQLQEVREDDDDAEMTHSVAVNVYPATSRMPKLTIVVVDTIPVELKSSYMVWSWFIYVLSANLLLVIPLLWVAAWWSLRPIEALAKEVRELEEHNRELLNPATTRELTSLVRNLNRLLKSERERYDKYRTTLTDLTHSLKTPLXXLQXXLRSLRSEKMSVSDAEPVMLEQISRISQQIGYYLHRASMRGGTLLSRELHPVAPLLDNLTSALNKVYQRKGVNISLDISPEISFVGEQNDFVEVMGNVLDNACKYCLEFVEISARQTDEHLYIVVEDDGPGIPLSKREVIFDRGQRVDTLRPGQGVGLAVAREITEQYEGKIVAGESMLGGARMEVIFGRQHSAPKDE

Variants of: B1
Experiment: enrichment ratio after two sorts for PhoP signalling (ratio (wild type AVST 3.29)); higher = more functional
Conditions: with PhoP (E. coli)

Row | Variant | enrichment ratio
1 | FEHC | ≤ 0.25
2 | NHFC | ≤ 0.25
3 | ILYS | ≤ 0.25
4 | GMSL | 4.68
5 | REVM | ≤ 0.25
6 | PSPV | ≤ 0.25
7 | NWNA | ≤ 0.25
8 | FMNQ | ≤ 0.25
9 | NKPL | ≤ 0.25
10 | NRDN | ≤ 0.25
11 | ITWK | ≤ 0.25
12 | LQMV | ≤ 0.25
13 | TNNF | 6.98
14 | SLNI | ≤ 0.25
15 | AIPA | ≤ 0.25
16 | QRLW | ≤ 0.25
17 | AFIR | ≤ 0.25
18 | LDRW | ≤ 0.25
19 | EPWY | ≤ 0.25
20 | EPGK | ≤ 0.25
21 | FLYG | ≤ 0.25

Row | Variant | enrichment ratio
22 | VATM | 2.07
23 | EGWS | ≤ 0.25
24 | TVEH | 9.73
25 | SAAM | 7.53
26 | DYWY | ≤ 0.25
27 | IYHK | ≤ 0.25
28 | RFGI | ≤ 0.25
29 | FGKI | ≤ 0.25
30 | EDCP | ≤ 0.25
31 | GGYN | ≤ 0.25
32 | QTFK | ≤ 0.25
33 | LPMV | ≤ 0.25
34 | RQSK | ≤ 0.25
35 | YKDY | ≤ 0.25
36 | GVAK | 11.7
37 | FNWH | ≤ 0.25
38 | VPAA | ≤ 0.25
39 | PENV | ≤ 0.25
40 | TCDA | ≤ 0.25
41 | MWPR | ≤ 0.25
42 | RCGG | ≤ 0.25

Row | Variant | enrichment ratio
43 | MFNT | ≤ 0.25
44 | LDIN | ≤ 0.25
45 | PHSF | ≤ 0.25
46 | TWLE | ≤ 0.25
47 | EYNH | ≤ 0.25
48 | GKFC | ≤ 0.25
49 | YWDW | ≤ 0.25
50 | NAPK | ≤ 0.25
51 | TGQS | 8.69
52 | HVNR | ≤ 0.25
53 | WISS | ≤ 0.25
54 | GKKC | ≤ 0.25
55 | NAVW | ≤ 0.25
56 | VYGA | ≤ 0.25
57 | MYKF | ≤ 0.25
58 | ATCN | 3.42
59 | REMV | ≤ 0.25
60 | LMNE | ≤ 0.25
61 | KGIR | ≤ 0.25
62 | PHII | ≤ 0.25
63 | YSPK | ≤ 0.25

Row | Variant | enrichment ratio
64 | RSYP | ≤ 0.25
65 | ISHR | ≤ 0.25
66 | HWNF | ≤ 0.25
67 | DKQP | ≤ 0.25
68 | YWGM | ≤ 0.25
69 | KCPV | ≤ 0.25
70 | GTDA | ≤ 0.25
71 | KKGV | ≤ 0.25
72 | PAQI | ≤ 0.25
73 | HESY | ≤ 0.25
74 | SSEC | ≤ 0.25
75 | KNCK | ≤ 0.25
76 | YYCL | ≤ 0.25
77 | MMFS | ≤ 0.25
78 | SECG | 13.7
79 | NGEL | ≤ 0.25
80 | PQMS | ≤ 0.25
81 | TPRN | ≤ 0.25
82 | QSWF | 7.13
83 | EAWY | ≤ 0.25
84 | RAVN | ≤ 0.25
